Results reported in the supplement of paper PMC12217912.
The other results are listed elsewhere or left out. Sequences were assembled here from the parent chain. Inactive controls read about 0.05.

B1: TEV protease; numbered along this chain (parent)
chain: MGESLFKGPRDYNPISSSICHLTNESDGHTTSLYGIGFGPFIITNKHLFRRNNGTLVVQSLHGVFKVKDTTTLQQHLVDGRDMIIIRMPKDFPPFPQKLKFREPQREERICLVTTNFQTKSMSSMVSDTSCTFPSGDGIFWKHWIQTKDGQCGSPLVSTRDGFIVGIHSASNFTNTNNYFTSVPKNFMELLTNQEAQQWVSGWRLNADSVLWGGHKVFMVKPEEPFQPVKEATQL

Variants of: B1
Test: raw area under fraction-flipped curve 0-4 h after induction (AUC4h, not background-subtracted), DNA-recorder readout of cleavage of the substrate (dimensionless); higher = more cleavage of the substrate by the protease variant
Settings: temperature: 34 °C; time window: 0-4 h after rhamnose induction
Protocol: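 In vivo DNA recorder in E. coli TOP10(DE3) ΔrhaA at 34 °C. Each TEVp single-site mutant (parent TEVp 0) is paired with a single-site variant of the 7-mer TEVs (canonical ENLYFQ|S). The substrate sits between flexible linkers in a Bxb1-sfGFP-TEVs-SsrA fusion, so cleavage stabilises Bxb1 and speeds flipping of a recombination array, read by NGS. The value is the raw area under the fraction-flipped curve over 0-4 h after rhamnose induction (AUC4h), with ≥20 reads per time point. It is not background-subtracted; inactive controls average about 0.047.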
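Also: Bxb1 expression induced with 0.2% (w/v) L-rhamnose at OD600 near 0.5, cultures sampled hourly, flipped fraction per protease–substrate barcode pair counted by paired-end Illumina sequencing.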

Row | Variant | area with substrate ENLYFAS | area with substrate ENLYFCS | area with substrate ENLYFES | area with substrate ENLYFFS | area with substrate ENLYFHS | area with substrate ENLYFIS | area with substrate ENLYFKS | area with substrate ENLYFMS | area with substrate ENLYFNS | area with substrate ENLYFRS | area with substrate ENLYFSS | area with substrate ENLYFTS | area with substrate ENLYFWS | area with substrate ENLYFYS | area with substrate ENLYFLS | area with substrate ENLYFPS | area with substrate ENLYFVS | area with substrate ENLYFDS | area with substrate ENLYFGS
1 | MGESLFKGPRDYNPISSSICHLTNESDGHTTSLYGIGFGPFIITNKHLFRRNNGTLVVQSLHGVFKVKDTTTLQQHLVDGRDMIIIRMPKDFPPFPQKLKFREPQREERICLVTTNFQTKSMSSMVSDTSCTFPSGDGIFWKHWIQTKDGQCGSPLVSTRDGFIVGIHSASNFTNTNNYFTSVPKNFMELLTNQEAQQWVSGWRLNADSVLWGGHKVFMVKPHEPFQPVKEATQL [E223H] | 0.0569 | 0.0627 | 0.0677 | 0.0731 | 0.0607 | 0.0513 | 0.0666 | 0.0829 | 0.0641 | 0.0672 | 0.0591 | 0.059 | 0.0702 | 0.064 | – | – | – | – | –
2 | MGESLFKGPRDYNPISSSICHLTNESDGHTTSLYGIGFGPFIITNKHLFRRNNGTLVVQSLHGVFKVKDTTTLQQHLVDGRDMIIIRMPKDFPPFPQKLKFREPQREERICLVTTNFQTKSMSSMVSDTSCTFPSGDGIFWKHWIQTKDGQCGSPLVSTRDGFIVGIHSASNFTNTNNYFTSVPKNFMELLTNQEAQQWVSGWRLNADSVLWGGHKVFMVKPEEPIQPVKEATQL [F226I] | 0.0204 | – | – | 0.0769 | 0.0582 | 0.0707 | 0.0767 | 0.0687 | 0.0652 | – | – | 0.037 | – | 0.0476 | 0.0531 | 0.065 | 0.0496 | – | –
3 | MGESLFKGPRDYNPISSSICHLTNESDGHTTSLYGIGFGPFIITNKHLFRRNNGTLVVQSLHGVFKVKDTTTLQQHLVDGRDMIIIRMPKDFPPFPQKLKFREPQREERICLVTTNFQTKSMSSMVSDTSCTFPSGDGIFWKHWIQTKDGQCGSPLVSTRDGFIVGIHSASNFTNTNNYFTSVPKNFMELLTNQEAQQWVSGWRLNADSVLWGGHKVFMVVPEEPFQPVKEATQL [K221V] | 0.0643 | 0.0474 | 0.0609 | 0.0583 | 0.0889 | 0.0502 | – | 0.0603 | 0.0403 | 0.0477 | – | 0.0595 | – | 0.0581 | – | 0.0535 | – | 0.0789 | –
4 | MGESLFKGPRDYNPISSSICHLTNESDGHTTSLYGIGFGPFIITNKHLFRRNNGTLVVQSLHGVFKVKDTTTLQQHLVDGRDMIIIRMPKDFPPFPQKLKFREPQREERICLVTTNFQTKSMSSMVSDTSCTFPSGDGIFWKHWIQTKDGQCGSPLVSTRDGFIVGIHSASNFTNTNNYFTSVPKNFMELLTNQEAQQWVSGWRLNADSVLWGGHKVFMVKPEELFQPVKEATQL [P225L] | 0.0486 | 0.0616 | 0.0729 | 0.0631 | 0.0495 | 0.061 | – | 0.0675 | 0.0638 | 0.058 | 0.0507 | 0.0657 | 0.0525 | – | – | 0.0502 | – | – | –
5 | MGESLFKGPRDYNPISSSICHLTNESDGHTTSLYGIGFGPFIITNKHLFRRNNGTLVVQSLHGVFKVKDTTTLQQHLVDGRDMIIIRMPKDFPPFPQKLKFREPQREERICLVTTNFQTKSMSSMVSDTSCTFPSGDGIFWKHWIQTKDGQCGSPLVSTRDGFIVGIHSASNFTNTNNYFTSVPKNFMELLTNQEAQQWVSGWRLNADSVLWGGHKVFMVKPEEAFQPVKEATQL [P225A] | 0.0516 | 0.0638 | 0.0671 | 0.06 | – | 0.0536 | 0.0391 | 0.0552 | – | 0.0661 | – | 0.0576 | 0.056 | – | – | – | 0.0629 | – | –
6 | MGESLFKGPRDYNPISSSICHLTNESDGHTTSLYGIGFGPFIITNKHLFRRNNGTLVVQSLHGVFKVKDTTTLQQHLVDGRDMIIIRMPKDFPPFPQKLKFREPQREERICLVTTNFQTKSMSSMVSDTSCTFPSGDGIFWKHWIQTKDGQCGSPLVSTRDGFIVGIHSASNFTNTNNYFTSVPKNFMELLTNQEAQQWVSGWRLNADSVLWGYHKVFMVKPEEPFQPVKEATQL [G214Y] | 0.0511 | – | – | – | – | 0.0623 | – | 0.0563 | 0.0441 | 0.0545 | – | – | – | – | – | 0.0537 | – | – | –
7 | MGESLFKGPRDYNPISSSICHLTNESDGHTTSLYGIGFGPFIITNKHLFRRNNGTLVVQSLHGVFKVKDTTTLQQHLVDGRDMIIIRMPKDFPPFPQKLKFREPQREERICLVTTNFQTKSMSSMVSDTSCTFPSGDGIFWKHWIQTKDGQCGSPLVSTRDGFIVGIHSASNFTNTNNYFTSVPKNFMELLTNQEAQQWVSGWRLNADSVLWGGHKVFIVKPEEPFQPVKEATQL [M219I] | 0.0615 | – | 0.0836 | 0.0582 | – | 0.0454 | 0.0662 | 0.0627 | 0.0628 | 0.0681 | 0.0521 | 0.0593 | 0.0574 | – | 0.0525 | 0.0514 | – | – | –
8 | MGESLFKGPRDYNPISSSICHLTNESDGHTTSLYGIGFGPFIITNKHLFRRNNGTLVVQSLHGVFKVKDTTTLQQHLVDGRDMIIIRMPKDFPPFPQKLKFREPQREERICLVTTNFQTKSMSSMVSDTSCTFPSGDGIFWKHWIQTKDGQCGSPLVSTRDGFIVGIHSASNFTNTNNYFTSVPKNFMELLTNQEAQQWVSGWRLNADSVLWGGHKVFGVKPEEPFQPVKEATQL [M219G] | 0.0599 | 0.0315 | 0.0558 | 0.0648 | 0.0509 | 0.0573 | 0.0655 | 0.0582 | 0.0588 | 0.056 | – | 0.0566 | 0.0578 | – | – | 0.0705 | – | 0.0567 | 0.0592
9 | MGESLFKGPRDYNPISSSICHLTNESDGHTTSLYGIGFGPFIITNKHLFRRNNGTLVVQSLHGVFKVKDTTTLQQHLVDGRDMIIIRMPKDFPPFPQKLKFREPQREERICLVTTNFQTKSMSSMVSDTSCTFPSGDGIFWKHWIQTKDGQCGSPLVSTRDGFIVGIHSASNFTNTNNYFTSVPKNFMELLTNQEAQQWVSGWRLNADSVLWGGHKVFMVKEEEPFQPVKEATQL [P222E] | 0.057 | 0.0607 | 0.0631 | 0.0672 | 0.0667 | 0.0508 | 0.0624 | 0.0673 | 0.0549 | 0.0654 | 0.0618 | – | – | – | 0.0486 | 0.0596 | 0.0693 | – | 0.0675
